Experimental data from the RNAGym collection of RNA variant scans (doi:10.7554/elife.90254).
Read counts are not given, so values of variants with three or more changes are uncertain.

B1: LINE1-full (parent)
chain: UACGUAGGUGGUUUUCCCCUGAUAGUGCUAAGGGGGCCUGGAAGUUUGGACUGGGCAGAGCUCAACACAGCGUGGCAAAGUGGCUGUGGCUAGACUGCCUCUCUGGAUUCCUCGUCACUCAGCAGGGCAUCUCUGAGAGAAAUGCC

Variants of: B1
Experiment: self-cleavage, relative activity (ratio to wild type); higher = more cleavage; in vitro, sequencing; the parent is a self-cleaving ribozyme

For UACGUAGGCGGUUUUCCCCUGAUAGUGCUAAGGGGGCCUGGAAGUCUGGACUGGGCAGUGCUCAACACAGCGUGGCAAAGUGGCUGUGGCUAGACUGCCUCUCUGGAUUCCUCGUCACUCAGCAGGGCAUCUCUGAGAGAAAUGCC, which self-cleavage is on record?
The self-cleavage was 1.31.

With UACGUAGGCGGUUCUCCCCUGAUAGUGCCAAGGGGGCCUGGAAGUUUGGACUGGGCAGAGCUCAACACAGCGUGGCAAAGUGGCUGUGGCUAGACUGCCUCUCUGGAUCCCUCGUCACUCAGCAGGGCAUCUCUGAGAGAAAUGCC as the variant, how does the self-cleavage read?
Its self-cleavage is 0.

For UACGUAGGCGGUUUUCCCCUGAUAGUGCUAAGGGGGCCUGGAAGCUUGGACUGGGCAGAGCCCAACACAGCGUGGCAAAGUGGCUGUGGCUAGACUGCCUCUCUGGAUUCCUCGUCACUCAGCAGGGCAUCUCUGAGAGAAAUGCC, which self-cleavage is on record?
Its self-cleavage is 0.

Which self-cleavage does the source give for UACGUAGGCGGUUUUCCCCUGAUAGUGCUAAGGGGGCCUGGAAGUUAGGACUGGGCAGAGCUCAACACAGCGUGGCAAAGUGGCUGUGGCUAGACUGCCUCUCUGGAUUCCUCGUCAUUCAGCAGGGCAUCUCUGAGAGAAAUGCC here?
The self-cleavage was 1.07.

Which self-cleavage does the source give for UACGUAGGCGGUUUUCCCCUGAUAGUGCCAAGGGGGCCUGGAAGUUUGGACUGGGCAGAGCUCAACACAGCGUGGCAAAGUGGCUGUGGCUAGACUGCCUCUCUGGAUUCUUCGUCACUCAGCAGGGCAUCUCUGAGAGAAAUGCC here?
The self-cleavage was 0.65.

For UACGUAGGCGGUUUUCCCCUGAUAGAGCUAAGGGGGCCUGGAAGUUUGGACUGGGCAGGGCUCAACACAGCGUGGCAAAGUGGCUGUGGCUAGACUGCCUCUCUGGGUUCCUCGUCACUCAGCAGGGCAUCUCUGAGAGAAAUGCC, which self-cleavage is on record?
The self-cleavage was 0.13.

Which self-cleavage does the source give for UACGUAGGCGGUUUUCCCCUGAUAGUGCUAAGGGGGCCUGGAAGCUUGGACUGGGCAGAGCUCUACACAGCGUGGCAAAGUGGCUGUGGCUAGACUGCCUCUCUGGAUUCCUCGUCACUCAGCAGGGCAUCUCUGAGAGAGAUGCC here?
Its self-cleavage is 0.56.

With UACGUAGGCGGUUUUCCCCCGAUAGUGCUAAGGGGGCCUGGAAGUUUGGACUGGGCAGAGCUCAACACAGCGUGGCAAAGCGGCUGUGGCGAGACUGCCUCUCUGGAUUCCUCGUCACUCAGCAGGGCAUCUCUGAGAGGAAUGCC as the variant, how does the self-cleavage read?
Its self-cleavage is 0.77.

For UACGUAGGCGGUUUACCCCUGAUAGUGCUAAGGGGGCCUGGAAGUUUGGACUGGGCAGAGCUCAACACAGCGUGGCAAAGUGGCUGUGGCUAGACUGCCUCUCUGGAUUCCUCGUCACUCAGCAGGGCAUCUCUGCGAGAAAUGCC, which self-cleavage is on record?
Its self-cleavage is 0.42.

With UACGUAGGCGGUUUUCCCCUGAUAGAGCUAAGGGAGCCUGGAAGUUUGGACUGGGCAGAGCUCAACACAGCGUGGCAAAGUGGCUGUGGCUAGACAGCCUCUCUGGAUUCCUCGUCACUCAGCAGGGCAUCUCUGAGAGAAAUGCC as the variant, how does the self-cleavage read?
Its self-cleavage is 0.12.

With UACGUAGGCGGUUUUCCCCAGAUAGUGCUAAGGGGGCCUGGAAGUUUGGACUGGGCAGAGCUCAACACAGCGUGGCAAAGUGGCUGUGGCUAGACUGCCUCUCUGGAUUCCUCGUCACUCAGCAGGGCAUCUCAGAGAGAAAUGCC as the variant, how does the self-cleavage read?
The self-cleavage was 0.82.

With UACGUAGGCGGUUCUCCCCUGACAGUGCUAAGGGGGCCUGGAAGUUUGGACUGGGCAGAGCUCAACACAGCACGGCAAAGUGGCUGUGGCUAGACUGCCUCUCUGGAUUCCUCGACACUCAGUAGGGCAUCUCUGGGAGAAAUGCC as the variant, how does the self-cleavage read?
The self-cleavage was 2.05.

For UACGUAGGCGGUUUGCCCCUGAUAGUGCUAAGGGGGCCUGGAAGUUUGGACUGGGCAGAGCUCAACACAGCGUGGCAAAGUGGCUGUGGCUGGACUGCCUCUCUGGAUUCCUCGUCACUCAGCAGGGCAUCUCUGAGAGAAAUGCC, which self-cleavage is on record?
Its self-cleavage is 0.

With UACGUAGGCGGUUUUCCCCGGAUAGUGCUAAGGGGGCCUGGAAGUUUGGACUGGGCAGAGCUCAACACAGCGCGGCAAAGUGGCUGUGGCUAGACUGCCUCUCUGGAUUCCUCGUCACUCAGCAGGGCAUCUCUGAGAGAAAUGCC as the variant, how does the self-cleavage read?
The self-cleavage was 0.51.

With UACGUAGGCGGUUUUCCCCUGAUAGUGCUAAGGGGGCCUGGAAGCUUGGACUGGCCAGAGCUCAACACAGCGUGGCAAAGUGGCUGUGGCUAGACGGCCUCUCUGAAUUCCUCGUCACUUAGCAGGGCAUCUCUGAGAGAAGUGCC as the variant, how does the self-cleavage read?
The self-cleavage was 0.

With UACGUAGGCGGUUUUCCCCUGAUAGUGCUAAGGGGGCCUGGAAGUUAGGACUGGGCAGAGCCCUACACAGCGUGGCAAAGUGGCUGUGGCUAGACUGCCUCUCUGGAUUCCUCGUCACUCAGCAGGGCAUCUCUGAGAGAAAUGCC as the variant, how does the self-cleavage read?
Its self-cleavage is 0.

Which self-cleavage does the source give for UACGUAGGCGGUUUUCCCCUGAUAGUGCAAAGGGGGCCUGGAAGUUUGGACUGGGCAGAGCUCAACACAGCGUGGCAAAGUGGCUGUGGCUAGACUGCCUCUCUGUAUUCCUCGUCGCUCAGCAGGGCAUCUCUGAGAGAAAUGCC here?
The self-cleavage was 1.6.

Which self-cleavage does the source give for UACGUAGGCGGUUUUCCCCCGAUAGUGCUAAGGGGGCCUGGAAGUUUGGACUGGGCAGAGCCCAACACAGCGUGGCAAAGUGGCUGUGGCUAGACUGCCUCUCUGGGUUCCUCAUCACUCAGCAGGGCACCUCUGAGAGAAAUGCC here?
Its self-cleavage is 0.

With UACGUAGGCGGUUUUCCCCUGAUAGUGCUAAGGGGGCCUGGAAGCUUGGACUGGGCAGAGCUCAACACAGCGUGGCAAAGUGGCUGUGGCUAGACUGCCUCUCUGGAUUCCUCGACACUCAGCAGGGCAUCUCUGUGAGAAAUGCC as the variant, how does the self-cleavage read?
The self-cleavage was 0.53.

Which self-cleavage does the source give for UACGUAGGCGGUUUUCCCCUGAUAGAGCUAAGGGGGCCCGGUAGUUUGGACUGGGCAGAGCUCAACACAGCGUGGCAAAGAGGCUGUGGCUAGACUGCCUCUCUGGAUUCCUCGUCACUCAGCAGGGCAUCUCUGAGAGAAAUGCC here?
The self-cleavage was 0.54.

Which self-cleavage does the source give for UACGUAGGCGGUUUUCCCCUGAUAGUGCUAAGGGGGCCAGGAAGUUUGGACUGGGCAGAGCACAACACAGCGUGGCAAAGUGGCUGUGGCUAGACUGCCUCUCUGGAUUCCUCGUCACUCAGCAGGGCAUCUCUGAGAGAAAUGCC here?
The self-cleavage was 0.08.

With UACGUAGGCGGUUUCCCCCUGAUAGUGCUAAGGGGGCCUGGAAGUUUGGACUGGGCAGAGCUCAACACAGCGUGGUAAAGUGGCUGUGGCUAGACUGCCUCUCUGGAUUCCUCGUCACUCAGCAGGGCAUCUCUGAGAGAAAUGCC as the variant, how does the self-cleavage read?
The self-cleavage was 1.7.

With UACGUAGGCGGUUUACCCCCGAUAGUGCUAAGGGGGCCUGGAAGGUUGGACUGGGCAAAGCUCAACACAGCGUGGCAAAGUGGCUGUGGCUAGACUGCCUCUCUGGAUUCCUCGUCACUCAGCAGGGCAUCUCUGAGAGAAAUGCC as the variant, how does the self-cleavage read?
The self-cleavage was 0.

Which self-cleavage does the source give for UACGUAGGCGGUUCUCCCCUGAUAGUGCUAAGGGGGCCUGGAAGUUUGGACAGGGCAGAGCUCAACACAGCGUGGCAAAGUGGCUGUGGCUAGACUGCCUCUCUGGAUUCCUCGUCACUCAGCAGGGCAACUCUGAGAGAAAUGCC here?
The self-cleavage was 0.15.

Which self-cleavage does the source give for UACGUAGGCGGUUUCCCCCCGAUAGUGCUAAGGGGGCCUGGAAGUUUGGACUGGGCAGAGCUCAACACAGCGUGGCAAAGUGGCUGUGGCUAGACUGCCUCUCUGGAUUCCACGUCACACAGCAGGGCAUCUCUGAGAGAAAUGCC here?
Its self-cleavage is 0.79.

Which self-cleavage does the source give for UACGUAGGCGGUUUUCCCCUGACAGUGCUAAGCGGGCCUGGAAGUUUGGACUGGGCAGAGCUCAACACAGCGUGGCAAAGUGGCUGUGGCUAGACUGCCUCUCUGGAUUCCUCGUCACUCAGCAGGGCAUCUCUGAGAGAAAUGCC here?
The self-cleavage was 0.71.

Which self-cleavage does the source give for UACGUAGGCGGUUUUCCCCUGAUAGUGCCGAGGGGGCCUGGAAGUUUGGACUGGGCAGAGCUCAACACAGCGUGACAAAGUGGCUGUGGCUAGACUGCCUCUCUGGAUUCCUCGUCACUCAGCAGGGCAUCUCUGAGAGAAGUGCC here?
Its self-cleavage is 1.41.

For UACGUAGGCGGUUUUCCCCUGAUAGUGCAAAGGGGGCCAGGAAGUUUGGACUGGGCAGAGCGCAACACAGCGUGGCUAAGUGGCUGUGGCUAGACUGCCUCUCUGGAUUCCACGUCACUCAGCAGGGCAUCUCUGAGAGAAAUGCC, which self-cleavage is on record?
Its self-cleavage is 0.27.

With UACGUAGGCGGUUUUCCCCUGACAGUGCUAAGGGGGCCUGGAAGUUUGGACUGGGCAGAGCUCAACACAGCGUGGCAAGGUGGCUGUGGCUAGACUGUCCCUCUGGAUUCCCCGUCACUCAGCAGGGCAUCUCUGAGAGGAAUGCC as the variant, how does the self-cleavage read?
The self-cleavage was 0.29.

With UACGUAGGCGGUUUUCCCCUGAUAGUGCUAAGGGGGCCUGGAAGUAUGGACUGGGCAGGGCUCAACACAGCGUGGCAAAGUGGCUGUGGCUAGACUGCCUCUCUGGAUUCCUCGUCACUCAGCAGGGCAUCUCUGAGAGAAAUGCC as the variant, how does the self-cleavage read?
Its self-cleavage is 0.24.

For UACGUAGGCGGUUUUCCCCUGAUAGUGCUAAGGGGGCCUGGAAGUUAGGACUGGGCAGAGCUCAACACAGCGUGGCAAAGUGGCUGUGGCUAGUCUGCCACUCUGGAUUCCUCGACACUCAGCAGGGCAUCUCUGAGAGAAAUGCC, which self-cleavage is on record?
The self-cleavage was 0.25.

For UACGUAGGCGGUUUUCCCCUGAUAGUGCUAAGGGGGCCUGGAAGUCUGGACUGGGCAGAGCUCAACACAGCGUGGCAAAGUGGCUGUGGCUAGACUGCCUCUCUGGAUUCCUCGUCACUCAGCUGGGCAUCUCUGAGAGAAAUGCC, which self-cleavage is on record?
The self-cleavage was 2.87.

For UACGUAGGCGGUUUUCCCCUGAUAGUGCUAAGGGGGCCUGGAAGUUAGGACUGGGCAGAGCUCAGCACAGCGUGGCAAAGUGGCUGUGGCUAGACUGCCUCUCUGGAUUCCUCGUCACUCAGCAGGGCAUCUCUGAGAGAAAUGCC, which self-cleavage is on record?
The self-cleavage was 0.12.

Which self-cleavage does the source give for UACGUAGGCGGUUUCCCCCUGAUAGUGCUAAGGGGGCCUGGAAGCUUGGACUGGGCAGAGCUCAACUCAGCGUGGCAAAGUGGCUGUGGCUAGACUGCCUCUCUGGAUUCCUCGUCACUCAGCAGGGCAUCUCUGAGAGAAAUGCC here?
Its self-cleavage is 0.

For UACGUAGGCGGUUUUCCCCUGAUAGCGCUAAGGGGGCCUGGAAGUUUGGACUGGGCAGAGCUCAACACAGCGUGGCAUAGGGGCUGUGGCUAGACAGCCUCUCUGGAUUCCUCGUCACUCAGCAGGGCAUCUCUGAGAGAAACGCC, which self-cleavage is on record?
Its self-cleavage is 0.28.

For UACGUAGGCGGUUUUCCCCAGAUAGUGCUAAGGGGGCCUGGAAGUUUGGACUGGGCAGAGCUCAACACAGCGUGGCAAGGUGGCUGUGCCUAGACUGCCUCUCUGGAUUCCUCGCCACUCAGCAGGGCAUCUCUGAGAGAAAUGCC, which self-cleavage is on record?
The self-cleavage was 0.

Which self-cleavage does the source give for UACGUAGGCGGUUUUCCCCCGAUAGUGCUAAGGGGGCCUGGAAGUUUGGACUGGGCAGAGCUCAAUACAGCGUGGCAAAGUGGCUGUGGCUAGACUGCCUCUCUGGAUUCCUCGUCACUCAGCAGGGCAUCUCUGAGAGAAAUGCC here?
The self-cleavage was 0.

For UACGUAGGCGGUUUUCCCCUGAUAGUGCUAAGGGGGCCCGGAAGUUUGGACCGGGCAGAGCUCAACACAGCGUGGCAAAGUGGCUGUGGCUAGACUGCCUCUCUGGAUUCCUCGUCACUCAGCAGGGCAUCUCUGAGGGAAAUGCC, which self-cleavage is on record?
Its self-cleavage is 0.44.

Which self-cleavage does the source give for UACGUAGGCGGUUUUCCCCAGAUAGUGCUGAGGGGGCCUGGAAGUUUGGACUGGGCAGAGCUCAACACAGCGUGGCAAAGUGGCUGUGGCUAGACUGCCUCUCUGGAUUCCUCGUCACUCAGCAGGGCAUCUCUGAGAGAAAUGCC here?
Its self-cleavage is 0.98.
